Some of the results follow.
Tests used:
Experiment in all cases: glycan array binding signal (z-score within array); higher = stronger binding
Details in all cases: glycan notation: IUPAC condensed, linker removed
[1] = biological target: Neu5Ac(a2-3)Gal(b1-4)[Fuc(a1-3)]GlcNAc
How it was run: (§1)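 The binding signal is a Z-score computed within each array. Data were drawn from 3228 arrays in the Consortium for Functional Glycomics database, restricted to those with a known protein sequence. Scores were averaged over arrays of the same protein sequence at different concentrations or buffers, and over linkers, and negative values can be taken as non-binding.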

[2] = biological target: Neu5Ac(a2-3)Gal(b1-4)[Fuc(a1-3)]GlcNAc(b1-2)Man
How it was run: as §1

[3] = biological target: Neu5Ac(a2-3)Gal(b1-4)[Fuc(a1-3)]GlcNAc(b1-3)Gal
How it was run: as §1

[4] = biological target: Neu5Ac(a2-3)Gal(b1-4)[Fuc(a1-3)]GlcNAc(b1-3)Gal(b1-4)GlcNAc
How it was run: as §1

[5] = biological target: Neu5Ac(a2-3)Gal(b1-4)[Fuc(a1-3)]GlcNAc(b1-3)Gal(b1-4)[Fuc(a1-3)]GlcNAc(b1-3)Gal(b1-4)[Fuc(a1-3)]GlcNAc
How it was run: as §1

[6] = biological target: Neu5Ac(a2-3)Gal(b1-4)[Fuc(a1-3)]GlcNAc(b1-3)GalNAc
How it was run: as §1

[7] = biological target: Neu5Ac(a2-3)Gal(b1-4)[Fuc(a1-3)]GlcNAc(b1-6)[Gal(b1-3)]GalNAc
How it was run: as §1

[8] = biological target: Neu5Ac(a2-3)Gal(b1-4)[Fuc(a1-3)]GlcNAc(b1-6)[Neu5Ac(a2-3)Gal(b1-3)]GalNAc
How it was run: as §1

[9] = biological target: Neu5Ac(a2-3)Gal(b1-4)[Fuc(a1-3)]GlcNAc6S
How it was run: as §1

[10] = biological target: Neu5Ac(a2-3)Gal6S(b1-4)GlcNAc
How it was run: as §1

[11] = biological target: Neu5Ac(a2-3)Gal6S(b1-4)[Fuc(a1-3)]GlcNAc
How it was run: as §1

Neu5Ac(a2-3)GalNAc = biological target: Neu5Ac(a2-3)GalNAc
How it was run: as §1

[12] = biological target: Neu5Ac(a2-3)GalNAc(b1-4)GlcNAc
How it was run: as §1

[13] = biological target: Neu5Ac(a2-3)[GalNAc(b1-4)]Gal(b1-4)Glc
How it was run: as §1

[14] = biological target: Neu5Ac(a2-3)[GalNAc(b1-4)]Gal(b1-4)GlcNAc
How it was run: as §1

[15] = biological target: Neu5Ac(a2-3)[GalNAc(b1-4)]Gal(b1-4)GlcNAc(b1-3)GalNAc
How it was run: as §1

[16] = biological target: Neu5Ac(a2-3)[Neu5Ac(a2-6)]GalNAc
How it was run: as §1

Neu5Ac(a2-6)Gal = biological target: Neu5Ac(a2-6)Gal
How it was run: as §1

[17] = biological target: Neu5Ac(a2-6)Gal(b1-3)GlcNAc(b1-3)[Gal(b1-4)GlcNAc(b1-6)]Gal(b1-4)Glc
How it was run: as §1

Neu5Ac(a2-6)Gal(b1-4)Glc = biological target: Neu5Ac(a2-6)Gal(b1-4)Glc
How it was run: as §1

[18] = biological target: Neu5Ac(a2-6)Gal(b1-4)GlcNAc
How it was run: as §1

[19] = biological target: Neu5Ac(a2-6)Gal(b1-4)GlcNAc(b1-2)Man
How it was run: as §1

[20] = biological target: Neu5Ac(a2-6)Gal(b1-4)GlcNAc(b1-2)Man(a1-3)Man(b1-4)GlcNAc(b1-4)GlcNAc
How it was run: as §1

[21] = biological target: Neu5Ac(a2-6)Gal(b1-4)GlcNAc(b1-2)Man(a1-3)[Gal(b1-4)GlcNAc(b1-2)Man(a1-6)]Man(b1-4)GlcNAc(b1-4)GlcNAc
How it was run: as §1

[22] = biological target: Neu5Ac(a2-6)Gal(b1-4)GlcNAc(b1-2)Man(a1-3)[GlcNAc(b1-2)Man(a1-6)]Man(b1-4)GlcNAc(b1-4)GlcNAc
How it was run: as §1

[23] = biological target: Neu5Ac(a2-6)Gal(b1-4)GlcNAc(b1-2)Man(a1-3)[GlcNAc(b1-4)][Neu5Ac(a2-6)Gal(b1-4)GlcNAc(b1-2)Man(a1-6)]Man(b1-4)GlcNAc(b1-4)GlcNAc
How it was run: as §1

[24] = biological target: Neu5Ac(a2-6)Gal(b1-4)GlcNAc(b1-2)Man(a1-3)[Man(a1-6)]Man(b1-4)GlcNAc(b1-4)GlcNAc
How it was run: as §1

[25] = biological target: Neu5Ac(a2-6)Gal(b1-4)GlcNAc(b1-2)Man(a1-3)[Neu5Ac(a2-3)Gal(b1-4)GlcNAc(b1-2)Man(a1-6)]Man(b1-4)GlcNAc(b1-4)GlcNAc
How it was run: as §1

[26] = biological target: Neu5Ac(a2-6)Gal(b1-4)GlcNAc(b1-2)Man(a1-3)[Neu5Ac(a2-6)Gal(b1-4)GlcNAc(b1-2)Man(a1-6)]Man(b1-4)GlcNAc(b1-4)GlcNAc
How it was run: as §1

[27] = biological target: Neu5Ac(a2-6)Gal(b1-4)GlcNAc(b1-2)Man(a1-3)[Neu5Ac(a2-6)Gal(b1-4)GlcNAc(b1-2)Man(a1-6)]Man(b1-4)GlcNAc(b1-4)[Fuc(a1-6)]GlcNAc
How it was run: as §1

[28] = biological target: Neu5Ac(a2-6)Gal(b1-4)GlcNAc(b1-2)Man(a1-6)Man(b1-4)GlcNAc(b1-4)GlcNAc
How it was run: as §1

[29] = biological target: Neu5Ac(a2-6)Gal(b1-4)GlcNAc(b1-2)Man(a1-6)[Gal(b1-4)GlcNAc(b1-2)Man(a1-3)]Man(b1-4)GlcNAc(b1-4)GlcNAc
How it was run: as §1

[30] = biological target: Neu5Ac(a2-6)Gal(b1-4)GlcNAc(b1-2)Man(a1-6)[GlcNAc(b1-2)Man(a1-3)]Man(b1-4)GlcNAc(b1-4)GlcNAc
How it was run: as §1

[31] = biological target: Neu5Ac(a2-6)Gal(b1-4)GlcNAc(b1-2)Man(a1-6)[Man(a1-3)]Man(b1-4)GlcNAc(b1-4)GlcNAc
How it was run: as §1

[32] = biological target: Neu5Ac(a2-6)Gal(b1-4)GlcNAc(b1-2)[Neu5Ac(a2-6)Gal(b1-4)GlcNAc(b1-4)]Man(a1-3)[GlcNAc(b1-4)][Neu5Ac(a2-6)Gal(b1-4)GlcNAc(b1-2)[Neu5Ac(a2-6)Gal(b1-4)GlcNAc(b1-6)]Man(a1-6)]Man(b1-4)GlcNAc(b1-4)GlcNAc
How it was run: as §1

[33] = biological target: Neu5Ac(a2-6)Gal(b1-4)GlcNAc(b1-2)[Neu5Ac(a2-6)Gal(b1-4)GlcNAc(b1-4)]Man(a1-3)[GlcNAc(b1-4)][Neu5Ac(a2-6)Gal(b1-4)GlcNAc(b1-4)Man(a1-6)]Man(b1-4)GlcNAc(b1-4)GlcNAc
How it was run: as §1

[34] = biological target: Neu5Ac(a2-6)Gal(b1-4)GlcNAc(b1-2)[Neu5Ac(a2-6)Gal(b1-4)GlcNAc(b1-6)]Man(a1-6)[Neu5Ac(a2-6)Gal(b1-4)GlcNAc(b1-2)Man(a1-3)][GlcNAc(b1-4)]Man(b1-4)GlcNAc(b1-4)GlcNAc
How it was run: as §1

[35] = biological target: Neu5Ac(a2-6)Gal(b1-4)GlcNAc(b1-3)Gal(b1-3)GlcNAc
How it was run: as §1

[36] = biological target: Neu5Ac(a2-6)Gal(b1-4)GlcNAc(b1-3)Gal(b1-4)GlcNAc
How it was run: as §1

[37] = biological target: Neu5Ac(a2-6)Gal(b1-4)GlcNAc(b1-3)Gal(b1-4)GlcNAc(b1-2)Man(a1-3)[Neu5Ac(a2-6)Gal(b1-4)GlcNAc(b1-3)Gal(b1-4)GlcNAc(b1-2)Man(a1-6)]GalNAc
How it was run: as §1

[38] = biological target: Neu5Ac(a2-6)Gal(b1-4)GlcNAc(b1-3)Gal(b1-4)GlcNAc(b1-3)Gal(b1-4)GlcNAc
How it was run: as §1

[39] = biological target: Neu5Ac(a2-6)Gal(b1-4)GlcNAc(b1-3)Gal(b1-4)GlcNAc(b1-3)Gal(b1-4)GlcNAc(b1-2)Man(a1-3)[Neu5Ac(a2-6)Gal(b1-4)GlcNAc(b1-3)Gal(b1-4)GlcNAc(b1-3)Gal(b1-4)GlcNAc(b1-2)Man(a1-6)]GalNAc
How it was run: as §1

[40] = biological target: Neu5Ac(a2-6)Gal(b1-4)GlcNAc(b1-3)Gal(b1-4)GlcNAc(b1-3)GalNAc
How it was run: as §1

[41] = biological target: Neu5Ac(a2-6)Gal(b1-4)GlcNAc(b1-3)Gal(b1-4)GlcNAc(b1-3)[Neu5Ac(a2-6)Gal(b1-4)GlcNAc(b1-3)Gal(b1-4)GlcNAc(b1-6)]GalNAc
How it was run: as §1

[42] = biological target: Neu5Ac(a2-6)Gal(b1-4)GlcNAc(b1-3)Gal(b1-4)GlcNAc(b1-6)[Gal(b1-3)]GalNAc
How it was run: as §1

B1: HHA (Hippeastrum hybrid) (protein)
chain: MQQDCNLVLYDVDKPIWASNTGGLARDCHLNMQSDGNLVVYAPRNQVIWASNTQGENGNYVCILQKDRNVVIYGTARWATGTNIHGAGIVGVPGSAPQNTTAEMIKLVRKYLITK
glycan array binding signal (z-score) [1]: -0.215 | glycan array binding signal (z-score) [2]: -0.201 | glycan array binding signal (z-score) [3]: -0.222 | glycan array binding signal (z-score) [4]: -0.211 | glycan array binding signal (z-score) [5]: -0.174 | glycan array binding signal (z-score) [6]: -0.189 | glycan array binding signal (z-score) [7]: -0.179 | glycan array binding signal (z-score) [8]: -0.168 | glycan array binding signal (z-score) [9]: -0.221 | glycan array binding signal (z-score) [10]: -0.219 | glycan array binding signal (z-score) [11]: -0.214 | glycan array binding signal (z-score) (Neu5Ac(a2-3)GalNAc): -0.117 | glycan array binding signal (z-score) [12]: -0.186 | glycan array binding signal (z-score) [13]: -0.22 | glycan array binding signal (z-score) [14]: -0.192 | glycan array binding signal (z-score) [15]: -0.013 | glycan array binding signal (z-score) [16]: -0.215 | glycan array binding signal (z-score) (Neu5Ac(a2-6)Gal): -0.213 | glycan array binding signal (z-score) [17]: -0.203 | glycan array binding signal (z-score) (Neu5Ac(a2-6)Gal(b1-4)Glc): -0.211 | glycan array binding signal (z-score) [18]: -0.211 | glycan array binding signal (z-score) [19]: -0.212 | glycan array binding signal (z-score) [20]: -0.202 | glycan array binding signal (z-score) [21]: -0.207 | glycan array binding signal (z-score) [22]: -0.219 | glycan array binding signal (z-score) [23]: -0.221 | glycan array binding signal (z-score) [24]: 0.002 | glycan array binding signal (z-score) [25]: -0.213 | glycan array binding signal (z-score) [26]: -0.22 | glycan array binding signal (z-score) [27]: -0.202 | glycan array binding signal (z-score) [28]: -0.189 | glycan array binding signal (z-score) [29]: 0.158 | glycan array binding signal (z-score) [30]: -0.135 | glycan array binding signal (z-score) [31]: 3.55 | glycan array binding signal (z-score) [32]: -0.208 | glycan array binding signal (z-score) [33]: -0.207 | glycan array binding signal (z-score) [34]: -0.215 | glycan array binding signal (z-score) [35]: -0.209 | glycan array binding signal (z-score) [36]: -0.211 | glycan array binding signal (z-score) [37]: -0.165 | glycan array binding signal (z-score) [38]: -0.208 | glycan array binding signal (z-score) [39]: -0.107 | glycan array binding signal (z-score) [40]: -0.005 | glycan array binding signal (z-score) [41]: -0.097 | glycan array binding signal (z-score) [42]: -0.191

Reference: the supplement of paper PMC8728848
